Laboratory results published in patent publication US5157019A, “Serine protease inhibitors” (Monsanto Company, priority 1991, dated 1992).
For some of these results: Not every detail of the peptide structures is certain; ends, links or a residue may be inferred. Some compounds share one wording; it may come from a single statement. For some of these results: At least one structure is not confirmed: it was looked up by name or label, or the drawing left a doubt. Some results were stated once for a whole list of compounds, not compound by compound. Bridge positions count the residues as written; N and C are the ends. Ends that are not written are not given here.

Key:
complement activation = assay: Reverse passive arthus reaction (RPAR), histopathology of injection sites; assay type: in vivo, guinea pigs; design: key: 0 indicating no acute inflamation; 1 indication minimal acute inflammation; 2 indicating mild acute inflammation; 3 indicating moderate acute inflammation; conditions: guinea pig RPAR, intradermal anti-bovine serum albumin plus peptide; antibody only mean score 3
Experimental: These exemplary peptide inhibitors (peptides 13, 7 and 27) were assayed for in vivo activity in inhibiting complement activation using the reverse passive arthus reaction (RPAR). RPAR is a model of complement-mediated damage due to activation via interaction with antigen/antibody complexes. Female guinea pigs (400 gm) were pretreated intracardially with bovine serum albumin and Evans blue dye. Ninety minutes later they received bilateral intradermal injections of peptide inhibitor or control material in the thoracolumbar region. Injection sites were excised postmortem and fixed in 10% buffered formalin for pathological evaluation. The peptides were administered to obtain an initial level of […] in the circulatory system.
The histopathological results are outlined below. The degree of inflammation was scored as follows: 0 indicating no acute inflamation; 1 indication minimal acute inflammation; 2 indicating mild acute inflammation; and 3 indicating moderate acute inflammation.

[1] = tested on: classical pathway of complement activation; assay: Hemolytic assay, classical pathway (lysis of EA cells by normal human serum); assay type: cell-based
[2] = tested on: alternative pathway of complement activation; assay: Hemolytic assay, alternative pathway (lysis of ER cells by normal human serum); assay type: cell-based
serine proteases = assay: Protease inhibition, test not specified (statements in the description); assay type: biochemical; conditions: qualitative
Factor D = target: T1, Factor D (Homo sapiens, UniProt P00746); assay: Factor D assay by inhibition of fluid phase Factor B activation; assay type: biochemical; conditions: Table X; μM concentration at which protease was inhibited 50%
T1 construct: prepared from pooled human plasma; from tissue; host or cells: pooled human plasma
T1 sequence (P00746 26-253): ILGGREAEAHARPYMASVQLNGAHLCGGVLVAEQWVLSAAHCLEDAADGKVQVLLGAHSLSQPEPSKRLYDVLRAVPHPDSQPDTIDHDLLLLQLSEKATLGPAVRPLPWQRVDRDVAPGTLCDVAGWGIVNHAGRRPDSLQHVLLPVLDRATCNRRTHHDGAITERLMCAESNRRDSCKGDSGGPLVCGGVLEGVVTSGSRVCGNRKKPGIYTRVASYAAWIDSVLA
Experimental: Highly purified C3, C4, Factor D, Factor B, and C1s were prepared from pooled human plasma. Factors B and C4 were radiolabeled by periodate oxidation of sialic acid residues, followed by reduction with tritiated sodium borohydride. In a representative experiment, a solution of 1.2 mg of factor B in 1.8 ml of PBS was treated with 70 μl of 0.1M NaIO4. After 10 min incubation on ice, excess reagent was removed by filtration over "SEPHADEX®" which is a matrix for gel chromatography (1.0 cm×20 cm). To the protein pool was added 60 μl of NaB[^3 H]4 solution and incubated for 30 min on ice. Labeled protein was separated from excess reagent by desalting or dialysis. Human C4 was radiolabeled in the same manner. […] The specific radioactivity of ^3 H factor B was about 10,000 CPM/μg and that of ^3 H-C4 was 5,000 CPM/μg.
The effect of the peptides on Factor D-dependent cleavage of factor B was studied by incubating 3.5 μg of Factor B, 1.5 μg of C3(H2 O) and 0.2 μl of Factor D at 37° C. for 60 min in Mg-PBS containing different concentrations of inhibitor. Uncleaved Factor B and its fragments, Ba and Bb, were first separated by SDS-PAGE and analyzed as described above. The percent cleavage of the reaction was calculated as follows: [formula]
B=radioactivity (CPM) of uncleaved factor B
Bb=radioactivity (CPM) of fragment Bb
Ba=radioactivity (CPM) of fragment Ba […]

C1s = target: T2, C1s (Homo sapiens, UniProt P09871); assay: C1s assay by inhibition of fluid phase C4 activation; assay type: biochemical; conditions: for C1s inhibited (statement): qualitative
T2 construct: prepared from pooled human plasma; from tissue; host or cells: pooled human plasma
T2 sequence (P09871 16-688): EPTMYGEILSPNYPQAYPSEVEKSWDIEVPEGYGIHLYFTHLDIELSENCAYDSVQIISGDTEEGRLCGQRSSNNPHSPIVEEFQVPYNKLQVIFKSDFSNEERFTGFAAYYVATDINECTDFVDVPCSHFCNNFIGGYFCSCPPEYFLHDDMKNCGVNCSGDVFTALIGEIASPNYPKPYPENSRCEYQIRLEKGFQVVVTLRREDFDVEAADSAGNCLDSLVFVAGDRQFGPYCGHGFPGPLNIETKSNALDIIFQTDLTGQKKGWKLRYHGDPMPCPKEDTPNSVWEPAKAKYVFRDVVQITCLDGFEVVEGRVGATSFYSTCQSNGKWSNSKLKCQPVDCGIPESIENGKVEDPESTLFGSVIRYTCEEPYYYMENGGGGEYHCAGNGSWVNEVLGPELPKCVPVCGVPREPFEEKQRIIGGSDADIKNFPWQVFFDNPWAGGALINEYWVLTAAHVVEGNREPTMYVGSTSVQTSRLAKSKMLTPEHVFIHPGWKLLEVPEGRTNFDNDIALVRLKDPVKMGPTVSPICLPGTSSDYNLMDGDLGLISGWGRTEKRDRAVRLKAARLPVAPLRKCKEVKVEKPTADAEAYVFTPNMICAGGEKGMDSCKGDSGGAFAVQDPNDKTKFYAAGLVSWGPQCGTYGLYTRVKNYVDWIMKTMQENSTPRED
Experimental: Highly purified C3, C4, Factor D, Factor B, and C1s were prepared from pooled human plasma. Factors B and C4 were radiolabeled by periodate oxidation of sialic acid residues, followed by reduction with tritiated sodium borohydride. In a representative experiment, a solution of 1.2 mg of factor B in 1.8 ml of PBS was treated with 70 μl of 0.1M NaIO4. After 10 min incubation on ice, excess reagent was removed by filtration over "SEPHADEX®" which is a matrix for gel chromatography (1.0 cm×20 cm). To the protein pool was added 60 μl of NaB[^3 H]4 solution and incubated for 30 min on ice. Labeled protein was separated from excess reagent by desalting or dialysis. Human C4 was radiolabeled in the same manner. Radiolabeled proteins were stored at -70° C. in PBS. The specific radioactivity of ^3 H factor B was about 10,000 CPM/μg and that of ^3 H-C4 was 5,000 CPM/μg.
The cleavage of C4 was studied by incubating 10 μg of tritiated C4 with 3-5 ng of C1s at 37° C. for 30 min in 100 μl of PBS (pH 7.10) containing different concentrations of inhibitor. The reaction was stopped by the addition of 2-mercaptoethanol. The extent of cleavage was analyzed by SDS-polyacrylamide gel electrophoresis. The stained bands corresponding to C4α and C4α' were cut out and sliced. The radioactivity of the fragments was measured by liquid scintillation counting. The percent cleavage of the reaction was calculated as follows: [formula]
Electrophoresis was carried out under reducing conditions in the Laemmli system using slab gel of 8% polyacrylamide. The gels were stained and destained (Fairbanks et al. Biochemistry (1971) 10:2606).
The percent inhibition of the reaction was calculated according to the following relationship: [formula]
A: % cleavage without inhibitor
B: % cleavage with inhibitor
The concentration inducing 50% inhibition was obtained by plotting the percent inhibition on a probability graph (National Blank Book Co., No. 12-083) on the ordinate and the log of the inhibitor concentration on the abscissa. […]

tPA = target: T3, tPA (Homo sapiens, UniProt P00750); assay: Tissue plasminogen activator (tPA) assay (S2288); assay type: biochemical; conditions: qualitative
T3 construct: Enzyme tPA, 2 chain activity standard; purchased American Diagnostica, Inc. 116
T3 sequence (P00750 311-562 limits assumed): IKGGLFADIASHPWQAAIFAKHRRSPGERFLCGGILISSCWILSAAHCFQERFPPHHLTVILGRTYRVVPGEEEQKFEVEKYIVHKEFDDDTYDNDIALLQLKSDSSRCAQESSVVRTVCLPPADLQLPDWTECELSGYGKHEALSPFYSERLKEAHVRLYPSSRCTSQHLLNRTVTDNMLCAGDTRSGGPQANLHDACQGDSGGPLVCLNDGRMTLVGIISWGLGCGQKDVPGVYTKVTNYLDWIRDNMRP
T3 sequence (P00750 36-310 partner limits assumed): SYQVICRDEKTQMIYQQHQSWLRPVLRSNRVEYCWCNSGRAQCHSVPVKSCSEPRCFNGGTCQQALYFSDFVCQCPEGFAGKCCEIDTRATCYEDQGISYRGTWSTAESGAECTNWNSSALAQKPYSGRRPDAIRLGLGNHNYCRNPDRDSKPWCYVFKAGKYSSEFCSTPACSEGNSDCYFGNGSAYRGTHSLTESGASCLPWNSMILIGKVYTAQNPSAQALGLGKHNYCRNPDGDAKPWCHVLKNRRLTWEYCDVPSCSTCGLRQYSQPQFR
Experimental: Substrate H-D-Ile-Pro-Arg-pNA·2HCl (S2288, Kabi), 10 mM in deionized water; may be frozen for future use.
Buffer 50 mM Tris·HCl, pH 7.4 containing 0.01% Tween 80.
Inhibitor […] in deionized water.
Enzyme tPA, 2 chain activity standard (Catalog #116, American Diagnostica, Inc.); stock solution=10 μL of original solution per mL in buffer.
Mix 200 μL of buffer, 200 μL of deionized water (control) or inhibitor solution and 40 μL of substrate solution. Incubate for 2 min. at 37° C., add 40 μL of enzyme, mix, and measure rate spectrophotometrically at 405 nm for about 5 min. Inhibition (%) is calculated in the same manner as in previous assays.

complement = assay: Complement inhibition, pathway not specified (statement in the description); conditions: qualitative

For AGRSLNPNRVTFKANRPFLVFI [Peptide 7], the “Degree of inflammation, mean score, antibody plus protease inhibitor” value (complement activation) was 2, the “% inhibition, classical pathway (CP)” value ([1]; 50 μM peptide) was 100% and the “% inhibition, alternative pathway (AP)” value ([2]; 50 μM peptide) was 100%.

“AGRSLNPNRVTFKANRPFLVFIREVPLNTIIFLGRVANP [Peptide 27]” was tested, and the “Degree of inflammation, mean score, antibody plus protease inhibitor” value (complement activation) was 3, the “Protease inhibitor quality (statement)” value (serine proteases) was “effective protease inhibitors” and the “% inhibition, classical pathway (CP)” value ([1]; 5 μM peptide) was 86%. The “% inhibition, alternative pathway (AP)” value ([2]; 5 μM peptide) was 65%.

In the case of “FLEAIPMSIPPRVTFKANRPFLVFIREVPLNTIIFLGRVANP [Peptide 28]”, the “Protease inhibitor quality (statement)” value (serine proteases) is reported as “effective protease inhibitors”.

With GVRGPRVVERVTFKANRPFLVFI-OH [Peptide 13] the IC50 (Factor D) was < 50 µM and the IC50 (C1s; Table X, μM concentration at which protease was inhibited 50%) was 33 µM.

In the case of “GVRGPRVVERVTFKANRPFLVFIREVPLNTIIFLGRVANP [Peptide 34]”, the “Protease inhibitor quality (statement)” value (serine proteases) is reported as “effective protease inhibitors”, the “% inhibition, classical pathway (CP)” value ([1]; 5 μM peptide) is reported as 100% and the “% inhibition, alternative pathway (AP)” value ([2]; 5 μM peptide) is reported as 45%.

“IAGRSLNPNRVTFKANRPFCVFIREVPLNTIIFLGCVANPAVK (disulfide 20-36) [Peptide 45]” was tested, and the “Inhibitory activity toward tPA (statement)” value (tPA) was “have inhibitory activity toward tPA”.

“IAGRSLNPNRVTLRYNKPFILVLFETPGNSLVFLGRISNPATK [Peptide 33]” was tested, and the “Complement inhibition compared with peptide 23 (statement)” value (complement) was “more effective complement inhibitor”.

With LQRALEILRVTFKANRPFLVFI [Peptide 14] the “% inhibition, classical pathway (CP)” value ([1]; 25 μM peptide) was 40%, the “% inhibition, alternative pathway (AP)” value ([2]; 25 μM peptide) was 0% and the “C1s inhibited (statement)” value (C1s) was “inhibited”.

With “LQRALEILRVTFKANRPFLVFIREVPLNTIIFLGRVANP [Peptide 35]” the “% inhibition, classical pathway (CP)” value ([1]; 50 μM peptide) was 100%, the “% inhibition, alternative pathway (AP)” value ([2]; 100 μM peptide) was 87% and the “C1s inhibited (statement)” value (C1s) was “inhibited”.

With PFLVFILPNIFLGRVAN [Peptide 43] the “Inhibitory activity toward tPA (statement)” value (tPA) was “have inhibitory activity toward tPA”.

RPFLVFILPGIFLGRVANP [Peptide 38] was tested, and the “Inhibitory activity toward tPA (statement)” value (tPA) was “have inhibitory activity toward tPA”.

In the case of RPFLVFILPNIFLGRVAN [Peptide 42], the “Inhibitory activity toward tPA (statement)” value (tPA) is reported as “have inhibitory activity toward tPA”.

In the case of RPFLVFILPNIFLGRVANP [Peptide 39], the “Inhibitory activity toward tPA (statement)” value (tPA) is reported as “have inhibitory activity toward tPA”.

With RPFLVFILPNIFLRVANP [Peptide 44] the “Inhibitory activity toward tPA (statement)” value (tPA) was “have inhibitory activity toward tPA”.

RPFLVFIRPGDIFLGRVANP [Peptide 40] was tested, and the “Inhibitory activity toward tPA (statement)” value (tPA) was “have inhibitory activity toward tPA”.

RPFLVFIRPNDFLGRVANP [Peptide 41] was tested, and the “Inhibitory activity toward tPA (statement)” value (tPA) was “have inhibitory activity toward tPA”.
